Results published in PMC5441636.
Results are given in words; binding and its absence hold for the method and conditions named. Some results given as binding are weak or reduced against the parent protein; the word gives no strength. Blank lines part the entries; values can stand above or below the molecule they belong to.

Legend:
[1] = target: human TAP1 D-helix NBD variant with the D-loop D674A mutation (human) (UniProt Q03518); test: SEC; analytical S200 3.2/30 column, 10 μl of 10 mg/ml protein; protein preloaded with ATP, 1 mM ATP in the elution buffer (20 mM Tris-HCl pH 8.0, 50 mM NaCl, 5 mM MgCl2, 10% glycerol); monomer to dimer; both purified
[2] = target: human TAP1 NBD L595F/Q596R (human-to-rat chimeric construct) (human) (UniProt Q03518); test: as above
[3] = target: human TAP1 NBD N676G/S677N (human) (UniProt Q03518); test: SEC; analytical S200 3.2/30 column, 10 μl of 10 mg/ml protein; nucleotide of these panels (Fig 4A, Fig 5A) not stated in text or legend; both purified
[4] = target: human TAP1 NBD R515H/D517N (human-to-rat chimeric construct) (human) (UniProt Q03518); test: SEC; analytical S200 3.2/30 column, 10 μl of 10 mg/ml protein; protein preloaded with ATP, 1 mM ATP in the elution buffer (20 mM Tris-HCl pH 8.0, 50 mM NaCl, 5 mM MgCl2, 10% glycerol); monomer to dimer; both purified
[5] = target: rat TAP1 NBD G653N/N654S (rat) (UniProt P36370); test: SEC; analytical S200 3.2/30 column, 10 μl of 10 mg/ml protein; nucleotide of these panels (Fig 4A, Fig 5A) not stated in text or legend; both purified
[6] = target: rat TAP1 D651A NBD (D-loop mutant) (rat) (UniProt P36370); test: SEC; analytical S200 3.2/30 column, 10 μl of 10 mg/ml protein; protein preloaded with ATP, 1 mM ATP in the elution buffer (20 mM Tris-HCl pH 8.0, 50 mM NaCl, 5 mM MgCl2, 10% glycerol); monomer to dimer; both purified

binding [1]: no binding (tested: 10 mg/ml injected)
Molecule: human TAP1 D-helix NBD variant with the D-loop D674A mutation (from UniProt Q03518 489-748) (domain or fragment)

binding [2]: no binding (tested: 10 mg/ml injected)
Molecule: human TAP1 NBD L595F/Q596R (human-to-rat chimeric construct) (from UniProt Q03518 489-748) (domain or fragment)

binding [3]: no binding (tested: 10 mg/ml injected)
Molecule: human TAP1 NBD N676G/S677N (from UniProt Q03518 489-748) (domain or fragment)

binding [4]: no binding (tested: 10 mg/ml injected)
Molecule: human TAP1 NBD R515H/D517N (human-to-rat chimeric construct) (from UniProt Q03518 489-748) (domain or fragment)

binding [5]: binds
B1: rat TAP1 NBD G653N/N654S (domain or fragment, UniProt P36370 466-725)
chain: PLSGSLAPLNMKGLVKFQDVSFAYPNHPNVQVLQGLTFTLYPGKVTALVGPNGSGKSTVAALLQNLYQPTGGKVLLDGEPLVQYDHHYLHTQVAAVGQEPLLFGRSFRENIAYGLTRTPTMEEITAVAMESGAHDFISGFPQGYDTEVGETGNQLSGGQRQAVALARALIRKPRLLILDDATSALDANSQLRVQRLLYESPEWASRTVLLITQQLSLAERAHHILFLKEGSVCEQGTHLQLMERGGCYRSMVEALAAPSD

binding [6]: no binding (tested: 10 mg/ml injected)
B2: rat TAP1 D651A NBD (D-loop mutant) (domain or fragment, UniProt P36370 466-725)
chain: PLSGSLAPLNMKGLVKFQDVSFAYPNHPNVQVLQGLTFTLYPGKVTALVGPNGSGKSTVAALLQNLYQPTGGKVLLDGEPLVQYDHHYLHTQVAAVGQEPLLFGRSFRENIAYGLTRTPTMEEITAVAMESGAHDFISGFPQGYDTEVGETGNQLSGGQRQAVALARALIRKPRLLILDDATSALAAGNQLRVQRLLYESPEWASRTVLLITQQLSLAERAHHILFLKEGSVCEQGTHLQLMERGGCYRSMVEALAAPSD
